A collection of fitness landscapes (doi:10.1016/j.celrep.2020.107928)
Whole data set: some 81,000 sequences, median “one-hybrid fitness for binding parS DNA” near -0.17, cut for the highest 2% near 0.51. This is one part of the list.

B1: Caulobacter ParB omega fusion; a variant is named by its letters at X, in order, B8GW30 (parent)
chain: MESVVVGEPGMSEGRRGLGRGLSALLGEVDAAPAQAPGEQLGGSREAPIEILQRNPDQPRRTFREEDLEDLSNSIREKGVLQPILVRPSPDTAGEYQIVAGERAWRAAQRAGLKTVPIMVRELDDLAVLEIGIIENVQRADLNVLEEALSYKVLMEKFERTQENIAQTIGKSXSHVANXMRLLXLPDEVQSYLVSGELTAXHARAIAAAADPVALAKQIIEGGLSVRETEALARKAPNLSAGKSKGGRPPRVKDTDTQALESDLSSVLGLDVSIDHRGSTGTLTITYATLEQLDDLCNRLTRGI

Variants of: B1
Assay: one-hybrid fitness for binding parS DNA (scaled: cognate 1, non-cognate 0); higher = stronger binding
Details: with parS DNA site
Method in brief: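 In E. coli USO, a HIS3 reporter with its site placed 19 bp from the promoter was used to select Caulobacter ParB variants randomised at four specificity codons. Growth lasted 48 hours at 37°C on histidine-free M9 containing 0.1 mM IPTG and 5 mM 3-AT. Fitness was taken as the log change in variant-to-wild-type read ratio from Illumina sequencing of pre- and post-selection plasmids, rescaled between the non-cognate and cognate sites.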

Variant | one-hybrid fitness for binding parS DNA
TGWG | ≤ 0.2
ISDE | ≤ 0.2
LFLT | ≤ 0.2
LDDC | ≤ 0.2
MILL | ≤ 0.2
LTRD | ≤ 0.2
TRKR | ≤ 0.2
LNTW | ≤ 0.2
FKVG | ≤ 0.2
AIPK | ≤ 0.2
AMNG | ≤ 0.2
SSDV | ≤ 0.2
ISNN | ≤ 0.2
SRTA | ≤ 0.2
NMTK | ≤ 0.2
VKSD | ≤ 0.2
IAPL | ≤ 0.2
MPMI | ≤ 0.2
KILG | ≤ 0.2
LIVG | ≤ 0.2
DRTL | ≤ 0.2
PDVI | ≤ 0.2
VFKM | ≤ 0.2
CLSP | ≤ 0.2

Variant | one-hybrid fitness for binding parS DNA
YTVA | ≤ 0.2
KIER | ≤ 0.2
GCTW | ≤ 0.2
LPDF | ≤ 0.2
EDSE | ≤ 0.2
TPRG | ≤ 0.2
KGNY | ≤ 0.2
CYSS | ≤ 0.2
TGRY | ≤ 0.2
YWDM | ≤ 0.2
CRRF | ≤ 0.2
LWLT | ≤ 0.2
GTDA | ≤ 0.2
IYKG | ≤ 0.2
GFVS | ≤ 0.2
INRS | ≤ 0.2
WLKC | ≤ 0.2
DILY | ≤ 0.2
VARW | ≤ 0.2
RDKT | ≤ 0.2
APLP | ≤ 0.2
RNMF | ≤ 0.2
SVHC | ≤ 0.2
NTHW | ≤ 0.2

Variant | one-hybrid fitness for binding parS DNA
CQGT | ≤ 0.2
QTTT | ≤ 0.2
QAAT | ≤ 0.2
QERE | ≤ 0.2
FGYS | ≤ 0.2
QISD | ≤ 0.2
DDPF | ≤ 0.2
AWNV | ≤ 0.2
QRTT | ≤ 0.2
QDTI | ≤ 0.2
MIAR | ≤ 0.2
HSEA | ≤ 0.2
PASV | ≤ 0.2
AGPE | ≤ 0.2
NKHI | ≤ 0.2
LSRS | ≤ 0.2
LLTW | ≤ 0.2
YYSC | ≤ 0.2
SKYS | ≤ 0.2
RWIF | ≤ 0.2
VCCR | ≤ 0.2
VTIC | ≤ 0.2
GGSV | ≤ 0.2
HLCG | ≤ 0.2

Variant | one-hybrid fitness for binding parS DNA
DGRW | ≤ 0.2
DVVG | ≤ 0.2
LMAR | ≤ 0.2
PNPP | ≤ 0.2
VGPE | ≤ 0.2
PPPP | ≤ 0.2
KAPL | ≤ 0.2
NGRV | ≤ 0.2
TAWR | ≤ 0.2
VAIV | ≤ 0.2
WRIL | ≤ 0.2
KTKH | ≤ 0.2
SGWC | ≤ 0.2
TPCC | ≤ 0.2
KYMV | ≤ 0.2
FHVK | ≤ 0.2
DSNI | ≤ 0.2
YYTS | ≤ 0.2
HTGC | ≤ 0.2
VERS | ≤ 0.2
RTSS | 0.938
LPCV | ≤ 0.2
CRET | ≤ 0.2
SEEM | ≤ 0.2

Variant | one-hybrid fitness for binding parS DNA
CSNK | ≤ 0.2
QKNN | ≤ 0.2
YALK | ≤ 0.2
LTVK | ≤ 0.2
RPLD | ≤ 0.2
CLKM | ≤ 0.2
GSKK | ≤ 0.2
PRSP | ≤ 0.2
VFNS | ≤ 0.2
VMTY | ≤ 0.2
APFI | ≤ 0.2
SWLC | ≤ 0.2
KNNL | ≤ 0.2
PALE | ≤ 0.2
TLET | ≤ 0.2
EELY | ≤ 0.2
EKAS | ≤ 0.2
PKSE | ≤ 0.2
AACN | ≤ 0.2
SMDM | ≤ 0.2
SWDL | ≤ 0.2
LPLS | ≤ 0.2
LTRW | ≤ 0.2
YCVR | ≤ 0.2

Variant | one-hybrid fitness for binding parS DNA
QRMT | ≤ 0.2
ASIG | ≤ 0.2
CITT | ≤ 0.2
QCQV | ≤ 0.2
TYSI | ≤ 0.2
LDRF | ≤ 0.2
WQTV | ≤ 0.2
LWGF | ≤ 0.2
GMNT | ≤ 0.2
LKTR | ≤ 0.2
ECKL | ≤ 0.2
LNAC | ≤ 0.2
RFNK | 0.203
YIRC | ≤ 0.2
QKAW | ≤ 0.2
IIDW | ≤ 0.2
DRMI | ≤ 0.2
PPQY | ≤ 0.2
PILR | ≤ 0.2
WNAR | ≤ 0.2
LFKR | ≤ 0.2
QQRG | ≤ 0.2
QRAH | ≤ 0.2
LPLE | ≤ 0.2

Variant | one-hybrid fitness for binding parS DNA
MRWL | ≤ 0.2
IAAC | ≤ 0.2
RRIN | 0.304
NLKI | ≤ 0.2
LILW | ≤ 0.2
RVFK | ≤ 0.2
CKET | ≤ 0.2
NYSS | ≤ 0.2
RHPT | 0.336
TDNM | ≤ 0.2
RPYK | ≤ 0.2
WQNE | ≤ 0.2
LHRM | ≤ 0.2
AWFT | ≤ 0.2
QIQS | ≤ 0.2
QEDG | ≤ 0.2
IYDI | ≤ 0.2
CAGY | ≤ 0.2
TLPK | ≤ 0.2
HTNV | ≤ 0.2
WTNT | ≤ 0.2
ANTV | ≤ 0.2
KEIV | ≤ 0.2
RMNQ | ≤ 0.2

Variant | one-hybrid fitness for binding parS DNA
KTHS | ≤ 0.2
HHAF | ≤ 0.2
QPSK | ≤ 0.2
VVPC | ≤ 0.2
VNTT | ≤ 0.2
CADN | ≤ 0.2
NNFS | ≤ 0.2
NNRS | ≤ 0.2
QLTQ | ≤ 0.2
QQFT | ≤ 0.2
SRFS | ≤ 0.2
FKHR | ≤ 0.2
FWHS | ≤ 0.2
GTKY | ≤ 0.2
KYIS | ≤ 0.2
HAWY | ≤ 0.2
AGIW | ≤ 0.2
LRFS | ≤ 0.2
ELCT | ≤ 0.2
PSEV | ≤ 0.2
WIVC | ≤ 0.2
GSSI | ≤ 0.2
ILFE | ≤ 0.2
LVRE | ≤ 0.2

Variant | one-hybrid fitness for binding parS DNA
WQLM | ≤ 0.2
PITL | ≤ 0.2
TAIR | ≤ 0.2
WGTT | ≤ 0.2
VRAP | ≤ 0.2
QEQG | ≤ 0.2
SGRV | ≤ 0.2
CIYS | ≤ 0.2
MLNV | ≤ 0.2
YTHP | ≤ 0.2
KSTM | ≤ 0.2
CLQS | ≤ 0.2
YNIV | ≤ 0.2
PMKT | ≤ 0.2
MPHG | ≤ 0.2
TDMT | ≤ 0.2
IRHS | ≤ 0.2
ESLI | ≤ 0.2
CIDG | ≤ 0.2
WVPG | ≤ 0.2
SISA | ≤ 0.2
SVHN | ≤ 0.2
HHAR | ≤ 0.2
NRIG | ≤ 0.2

Variant | one-hybrid fitness for binding parS DNA
PQSK | ≤ 0.2
PYMC | ≤ 0.2
MDRC | ≤ 0.2
SSHD | ≤ 0.2
PPHY | ≤ 0.2
RCVS | 1.02
GHRG | ≤ 0.2
FPNR | ≤ 0.2
GQHR | ≤ 0.2
SGID | ≤ 0.2
NPIP | ≤ 0.2
GAPN | ≤ 0.2
MQAL | ≤ 0.2
QRPY | ≤ 0.2
TTWM | ≤ 0.2
TINC | ≤ 0.2
TYTA | ≤ 0.2
STTY | ≤ 0.2
TAAD | ≤ 0.2
NMMC | ≤ 0.2
GFPT | ≤ 0.2
RPAD | ≤ 0.2
TTEK | ≤ 0.2
CGGG | ≤ 0.2

Variant | one-hybrid fitness for binding parS DNA
AYRY | ≤ 0.2
GEDA | ≤ 0.2
TSLE | ≤ 0.2
VMFC | ≤ 0.2
QFAT | ≤ 0.2
QNQM | ≤ 0.2
QGNA | ≤ 0.2
IGAF | ≤ 0.2
VILC | ≤ 0.2
HGIS | ≤ 0.2
ANCG | ≤ 0.2
ASYR | ≤ 0.2
RMFY | 0.492
EPIC | ≤ 0.2
QHKW | ≤ 0.2
ASYV | ≤ 0.2
LNYL | ≤ 0.2
PAFC | ≤ 0.2
QTYK | ≤ 0.2
VGKS | ≤ 0.2
AYFC | ≤ 0.2
HRND | ≤ 0.2
KVKY | ≤ 0.2
SHRA | ≤ 0.2

Variant | one-hybrid fitness for binding parS DNA
RSLR | ≤ 0.2
PKPI | ≤ 0.2
HPYG | ≤ 0.2
AASD | ≤ 0.2
LFRC | ≤ 0.2
VWVK | ≤ 0.2
DRYW | ≤ 0.2
TDMR | ≤ 0.2
QNQS | ≤ 0.2
VNLT | ≤ 0.2
RCQG | 1.02
WCPS | ≤ 0.2
YLES | ≤ 0.2
WPAC | ≤ 0.2
LRHQ | ≤ 0.2
VRNG | ≤ 0.2
ACGG | ≤ 0.2
RNHM | ≤ 0.2
MDPL | ≤ 0.2
NMTG | ≤ 0.2
LRTC | ≤ 0.2
NPND | ≤ 0.2
PLPC | ≤ 0.2
IYTS | ≤ 0.2

Variant | one-hybrid fitness for binding parS DNA
GVQC | ≤ 0.2
MPHT | ≤ 0.2
KFDR | ≤ 0.2
MSAP | ≤ 0.2
WHLC | ≤ 0.2
CVIV | ≤ 0.2
VYVT | ≤ 0.2
STAG | ≤ 0.2
AHNE | ≤ 0.2
PFTS | ≤ 0.2
TSDE | ≤ 0.2
TFEE | ≤ 0.2
GKSR | ≤ 0.2
FSEF | ≤ 0.2
AFPE | ≤ 0.2
NSCL | ≤ 0.2
GFNG | ≤ 0.2
TADR | ≤ 0.2
